Results on 1 molecule are retold here after US20230203471A1, “METHOD AND PLATFORM FOR DISRUPTING INTRACELLULAR MICROTUBULES” (National Tsing Hua University, priority 2021, published 2023).

Experiment [1] deals with intracellular microtubules (MTs).
The target of experiment [2] is MT-binding domain of ensconsin-cyan fluorescent protein-FKBP-rapamycin binding domain (EMTB-CFP-FRB) (Artificial Sequence). Briefly: FRET live-cell imaging in co-transfected HeLa cells, 100 nM rapamycin.
Sequence of MT-binding domain of ensconsin-cyan fluorescent protein-FKBP-rapamycin binding domain (EMTB-CFP-FRB) (Artificial Sequence) (chain, as listed by the source): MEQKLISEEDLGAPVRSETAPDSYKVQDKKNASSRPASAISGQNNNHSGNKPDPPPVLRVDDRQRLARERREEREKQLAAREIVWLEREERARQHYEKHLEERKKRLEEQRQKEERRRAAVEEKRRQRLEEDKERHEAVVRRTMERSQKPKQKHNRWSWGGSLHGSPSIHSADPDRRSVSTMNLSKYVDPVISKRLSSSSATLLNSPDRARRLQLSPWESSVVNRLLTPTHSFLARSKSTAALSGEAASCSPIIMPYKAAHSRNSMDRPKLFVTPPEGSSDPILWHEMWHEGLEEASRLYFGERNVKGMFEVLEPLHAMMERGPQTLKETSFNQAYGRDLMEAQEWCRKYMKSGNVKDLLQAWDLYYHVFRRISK

B1: dNSpastin3Q-YFP-FKBP (enzyme)
chain: MESGAVPKRKDPLTHASNSLPRSKTVLKSGSAGLSGHHRAPSCSGLSMVSGARPGPGPAATTHKGTPKPNRTNKPSTPTTAVRQQQDLKNFRNVDSNLANLIMNEIVDNGTAVKFDDIAGQELAKQALQEIVILPSLRPELFTGLRAPARGLLLFGPPGNGKTMLAKAVAAESNATFFNISAASLTSKYVGEGEKLVRALFAVARELQPSIIFIDEVDSLLCERREGEHDASRRLKTEFLIEFDGVQSAGDDRVLVMGATNRPQELDEAVLRRFIKRVYVSLPNEETRLLLLKNLLCKQGSPLTQKELAQLARMTDGYSGSDLTALAKDAALGPIRELKPEQVKNMSASEMRNIRLSDFTESLKKIKRSVSPQTLEAYIRWNKDFGDTT[about 100 residues omitted]
Take B1: the half time of MT disruption (MT filament area) in experiment [1] amounted to 11.1 min. For the same molecule, the T½ of translocation in experiment [2] came out at 60.4 s.
